Results published in ChEMBL document CHEMBL4888484, “Replenishing the malaria drug discovery pipeline: Screening and hit evaluation of the MMV Hit Generation Library 1 (HGL1) against asexual blood stage Plasmodium falciparum ,using a nano luciferase reporter read-out” (2022).
The campaign covered roughly 150,000 compounds. About 540 (0.36%) showed an effect of 50% or more. Some of the results follow.

tested on: Plasmodium falciparum; test: Primary screen in NF54 nanoGlo assay, in single point, at 2uM, 72h; a lower Z score goes with more inhibition; assay type: functional, Erythrocyte; conditions: timepoint 72 hour

SMILES	% Inhibition [%]	Z score
CCn1cc(C(=O)NS(=O)(=O)[C@@H](C)CC(C)C)c(C(C)C)n1	3	-0.32
CCn1c(-n2nc(C)nc2CCNC(C)=O)nc2ccccc21	-8	0.9
N#Cc1c(-c2cccn2-c2ncccn2)cc(-c2ccc[nH]2)nc1N	-18	2.76
O=C(Cc1cccc(N(Cc2ccc(F)cc2)C(=O)c2cccs2)c1)NCC1CC1	2	-0.24
CC(C)CN1CCCN(Cc2cc3ccc(Cl)cc3nc2O)CC1	-26	2.6
C[C@]1(C(=O)N2CCc3cncnc3C2)CCCN(C(=O)c2ccccc2)C1	-1	0.16
Cc1ccc(CC(=O)NC2(C#N)CCC(C(C)(C)C)CC2)cn1 (centres undefined)	-11	1.98
COCC1CN(C(=O)N[C@@H](C)c2ccc(OC(F)F)cc2)C1	-8	1.48
CCCC(C)(CCCNC(=O)[C@@H]1Cc2ccccc2N1C(C)=O)C1OCCO1 (some centres undefined)	-9	1.42
O=C(c1cccc(S(=O)(=O)N2CCOCC2)c1)N1CCC[C@H]1c1nnc2ccccn12	3	-0.33
Cc1cnc(N2CCC(OCc3cccnc3)CC2)nc1N	11	-2.21
O=C1OCCN1CCCn1cc(Cl)cn1	7	-1.05
O=C(N[C@H]1CCC[C@H]1C(=O)O)c1ccc(-c2ccccc2)[nH]1	-7	0.87
Cn1ccnc1CN[C@@H]1CO[C@H](CNC(=O)c2ccc(F)cc2)[C@H]1O	-5	0.98
CNC(=O)[C@H]1CCN(C(=O)NC2CCCCC2)C1	2	-0.2
C#C[C@H](C)NC(=O)COC1CCC(NC(=O)OC(C)(C)C)CC1 (some centres undefined)	-10	1.96
CC(C)COC(C)C(=O)NC(C)c1cccs1 (centres undefined)	-17	1.77
CC1CC1c1ccc(CN(C)C(=O)CC(F)(F)F)o1 (centres undefined)	-7	0.9
COc1cccc(-c2nc(C)c(C(=O)NC[C@@H]3CCCN4CCCCC34)s2)c1 (some centres undefined)	-1	0.17
Cc1nc(CNC(=O)N2CCC(CCc3ccc(F)cc3F)CC2)no1	-9	1.16
Cc1cc(NC(=O)COc2c(Cl)c(Cl)c(Cl)c(Cl)c2Cl)n(C)n1	-15	1.62
CCOc1ccc(NC(=O)Cn2ccn(-c3ccc(OC)cc3)c2=O)cc1	-2	0.39

SMILES	% Inhibition [%]	Z score
CCCN(C(=O)Nc1cccnc1)c1ccccc1	-19	1.79
COCCn1ccc2ccn(Cc3nc(-c4ccncc4)no3)c(=O)c21	-27	2.36
Cc1nn(S(=O)(=O)N(C)C)c(C)c1C	4	-0.69
Cc1oc(C(C)C)cc1C(=O)N1C[C@@H](CN2CCCCC2)[C@@H](CO)C1	-9	1.39
COc1ccc(CNC(=O)Cn2ccnc2-c2ccnc(N3CCCC3)c2)cc1	12	-1.42
CC(NC(=O)NC(C)(C)c1ccc2c(c1)OCO2)C1CCCO1 (centres undefined)	-7	1.13
COc1cccc(C2=NO[C@H](C(=O)N3CCCC3)C2)c1	-11	1.65
Cc1ccc(NC(=O)Cn2c(=O)n(Cc3ccc4c(c3)OCO4)c(=O)c3ccccc32)c(C)c1	6	-0.66
COc1cc(OC)c2ncnc(NC3CCN(C(=O)C(C)C)CC3)c2c1	-1	0.24
CCc1nn(C)cc1CNc1cnccc1N1CCCC1	-13	2.09
CCn1c(CCc2cccc(NC(=O)Nc3cc(F)ccc3F)c2)nc2ccccc21	-1	0.17
Cc1cc(-c2cc(S(=O)(=O)N3C[C@H](O)[C@@H](F)C3)c(C)s2)[nH]n1	-19	2.18
COc1ccc(-n2c(CN3CCCC3)n[nH]c2=O)c(C)c1	-9	0.87
CCC(=O)NCc1ccc(-c2noc(-c3cnccn3)n2)s1	5	-0.56
Cc1ncsc1CN(C)[C@H]1CCN(C(C)(C)C)C1=O	-15	2
CCOC(=O)c1[nH]cnc1CNc1ncnc(CC)c1F	-14	2.45
CCn1nc(C(=O)Nc2cc(C)no2)ccc1=O	10	-1.41
CCOC(=O)NC1CCC(OC(=O)c2ccc(Cn3cncn3)cc2)CC1 (centres undefined)	-13	2.41
Cc1ccc(CNS(=O)(=O)c2c(C)[nH]c(C)c2-c2nnc(C)o2)cc1	-7	0.88
CN(CC1(CO)CCCC1)C(=O)c1cc(CO)ccn1	-1	0.11
O=C(Nc1ccccc1)C1CCN(C(=O)c2ccc3c(c2)CCC3)CC1	-15	1.96
Cc1cccn2c(=O)cc(CNc3ccccc3C(=O)N3CCC[C@H](O)C3)nc12	-2	0.36

SMILES	% Inhibition [%]	Z score
COc1ccc(CN2CC[C@H](c3nnc(COc4ccc(F)cc4)o3)C2)cc1	13	-1.56
C[C@H]1CN(C(=O)c2ccc3ccccc3n2)C[C@@H]1c1nc(-c2ccncc2)no1	-4	0.44
Cc1ccc(C(=O)N2CCC(c3cc(N)on3)CC2)cc1	-9	1.43
Cc1cc(S(=O)(=O)n2c(/C=C/c3cccc(Br)c3)nc3ccccc32)ccc1F	-5	0.77
O=C(CC1CCCCC1)N1C[C@H](c2nnc(-c3ccncc3)o2)C2(CCOCC2)C1	-1	0.19
COC(=O)C[C@H]1CCCN1C(=O)c1n[nH]c(C)c1C(F)(F)F	-4	0.46
O=C(O)[C@H]1CN(C(=O)CCc2ccncc2)C[C@@H]1c1ccc(F)cc1	7	-1.31
CN(Cc1ccc2c(c1)OCO2)C(=O)c1ccc(C(=O)O)s1	3	-0.58
CCc1nc(C)sc1CNC(=O)COC(C)C	-1	0.14
C[C@@H](C(=O)NCCCn1ccnn1)n1ccnc1	-7	1.01
COC[C@H]1CN(C)CC12CCN(Cc1ccc(Cl)c(F)c1)CC2	-9	1.03
Cn1nc(C2CC2)cc1C(=O)NCc1noc(-c2cccc(F)c2)n1	-11	1.91
CCOCC1CCN(C(=O)CN2CCC(C)C2)C1 (centres undefined)	7	-1.25
CCOCC(=O)NCCCn1ccnc1	-2	0.47
O=C(NCC1(CO)CC1)NC1CC1C1CCCCC1 (centres undefined)	-14	2.17
C=CCN(CC(=O)N1CCC1)C1CCCC1	-31	3.61
FCCOc1cccc(NCc2cccc3cn[nH]c23)c1	-3	0.48
CCCc1nnc(N2C[C@H](CCC)[C@@H](C(=O)O)C2)s1	6	-1.2
CC1(C(=O)O)CN(C(=O)c2csc(C(C)(C)C)n2)C1	-9	1.21
C[C@@H](CC(N)=O)NCC1(c2c(F)cccc2F)CC1	3	-0.5
COc1ccccc1OCC(=O)Nc1ccc2c(c1)OCCCO2	-18	2.89
CN(C)C(=O)CCNS(=O)(=O)c1ccc(Cl)cc1	-3	0.52

SMILES	% Inhibition [%]	Z score
CCN(CC)Cc1nnc2sc(-c3ccc4ccccc4c3)nn12	-6	0.83
COc1nccc(N2CCO[C@H](c3ccc(F)cc3)C2)c1C#N	-4	0.84
Cc1cc(OCc2ccc(C(=O)N(Cc3ccccc3)Cc3ccccc3)o2)ccc1Cl	-14	1.84
CCN(Cc1nc(COC)no1)C(=O)c1ccc(-c2cnccc2N)cc1	-3	0.38
COc1ccc2[nH]c(-c3nc(C)nn3CC(C)(C)O)cc2c1	-15	2.18
Cc1noc(C)c1C(=O)NC[C@H](O)c1ccc(-c2cccs2)s1	5	-0.71
CCOCC(=O)N1CCC[C@H]1c1nn(CC2CCCCC2)c2c1COCC2	-12	1.13
O=C(CCc1conc1-c1ccc(F)cc1)NC1CC1	-7	0.94
CC(C)Cc1ccc(-c2nccn2[C@@H]2C[C@@H](CO)N(C)C2)s1	-7	1
CCC1(C)OC(=O)N2CCc3c(C)[nH]c4cccc(c34)C21C (centres undefined)	-13	1.71
Cc1nc(OC[C@H]2CCCOC2)sc1C	-8	1
COCCNC(=O)c1ccc(NCc2ccc(N(C)C)c(F)c2)nc1	0	0.04
Cc1nc(CN2CCOc3ccc(Cl)cc32)no1	1	-0.07
O=S(=O)(NCCc1ccsc1)C1CC1	-11	1.89
Cc1ccc(Cl)cc1N1CCN(C(=O)c2c(C)oc3ncn(C)c(=O)c23)CC1	-3	0.59
CCc1cnc(C)nc1-c1ccc(C(=O)NCCc2nc(N)cc(O)n2)cc1	0	-0.02
CC(C)OCCCNC(=O)Nc1cnn(C)c1	12	-2.19
Cc1ccc(Cl)cc1N1CCN(C(=O)c2cccc(Nc3nc4ccccc4n4cnnc34)c2)CC1	-3	0.56
CN(CC1(CO)CCCC1)C(=O)CN1CCCCC1	-8	1.48
Cc1c(C#N)c(NC(=O)CCN2CCOCC2)n(Cc2ccco2)c1C	9	-0.75
COc1ccc2c(c1)N(Cc1cn(C)nc1C)C[C@H](C)O2	-8	0.73
